Values joined by “and” are separate entries in the source; they are usually repeats but may differ in a detail not shown here. Equal entries are not always repeated. Structures can show the parent of a compound that is named as a salt. ± gives the standard deviation of the averaged measurements. Whole data set: some 2,000 compounds, median “relative cell viability vs DMSO, compound alone” near 1.1, cut for the lowest 2% near 0.29. Some of the results follow.
What follows are compounds tested on TE10 (assay: relative cell viability vs DMSO, compound alone (fraction); TE10 is an esophageal squamous carcinoma line; higher = less cytotoxic). Conditions: 2 µM; 48 h.
Procedure: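 TE10 ESCC cells (1,000/well, 384-well plates) were treated with Selleck bioactive library compounds at 2 uM alone for 48 h. Viability was read by CellTiter-Glo and expressed relative to DMSO wells. Two technical replicates (A, B).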
`CC[C@H](C)C(=O)O[C@H]1C[C@H](O)C=C2C=C[C@H](C)[C@H](CC[C@@H](O)C[C@@H](O)CC(=O)O)[C@H]21` [Pravastatin sodium] showed a relative cell viability of 0.871 ± 0.14. With `Nc1ccccc1NC(=O)c1ccc(CNc2nccc(-c3cccnc3)n2)cc1` [Mocetinostat (MGCD0103)] the relative cell viability was 0.33 ± 0.063. `COc1cc(-c2cc(-c3ccc(N4CCNCC4)cc3)cnc2C)cc(OC)c1OC` was tested, and the relative cell viability was 1.16 ± 0.019. `CC(C)(C)OC(=O)Nc1ccc(-c2cc(C(=O)NCCCCCCC(=O)NO)no2)cc1` showed a relative cell viability of 0.582 ± 0.038. For `COc1cc(-c2cc(-c3cccc(O)c3)cnc2N)cc(OC)c1OC`, the relative cell viability was 1.21 ± 0.0055. For `COc1cc2ncnc(Nc3ccc(O)c(Br)c3)c2cc1OC`, the relative cell viability was 1.223 ± 0.0039. `O=C(O)c1ccc(O)c2ncccc12` showed a relative cell viability of 1.11 ± 0.036. `CO[C@H]1C[C@@H]2CC[C@@H](C)[C@@](O)(O2)C(=O)C(=O)N2CCCC[C@H]2C(=O)O[C@H]([C@H](C)C[C@@H]2CC[C@H](n3cnnn3)[C@H](OC)C2)CC(=O)[C@H](C)/C=C(\C)[C@@H](O)[C@@H](OC)C(=O)[C@H](C)C[C@H](C)/C=C/C=C/C=C/1C` [Zotarolimus(ABT-578)] gave a relative cell viability of 0.888 ± 0.073. In the case of `CCCC(=O)Nc1cccc(NC(=O)c2ccccc2Br)c1`, the relative cell viability is reported as 1.09 ± 0.038. Compound `CN1CCN(c2ccc(Nc3cc(-c4cccc(-n5ccc6cc(C7CC7)cc(F)c6c5=O)c4CO)cn(C)c3=O)nc2)CC1` has a relative cell viability of 0.9932 ± 0.0039. With `CN(C)C(=O)c1cc2cnc(Nc3ccc(N4CCNCC4)cn3)nc2n1C1CCCC1` the relative cell viability was 1.147 ± 0.008. For `CC(=O)O[C@]1(C(C)=O)CC[C@H]2[C@@H]3C=C(C)C4=CC(=O)CC[C@]4(C)[C@H]3CC[C@@]21C` [Megestrol Acetate], the relative cell viability was 1.15 ± 0.17. Compound `C=C1[C@H](CO)[C@@H](O)C[C@@H]1n1cnc2c(=O)[nH]c(N)nc21` [Entecavir Hydrate] has a relative cell viability of 1.19 ± 0.021. For `Nc1nnc(-c2cccc(Cl)c2Cl)c(N)n1` [Lamotrigine], the relative cell viability was 1.045 ± 0.0061. Compound `Brc1ccc(C2CN3CCSC3=N2)cc1` (single isomer, unassigned; (-)) [(-)-p-Bromotetramisole Oxalate] has a relative cell viability of 1.18 ± 0.046. With `Cc1cc(Nc2cc(CN3CCOCC3)c3nc(C)c(Cc4ccc(Cl)cc4F)n3n2)n[nH]1` the relative cell viability was 0.986 ± 0.079. Compound `CC[C@@]1(O)C(=O)OCc2c1cc1n(c2=O)Cc2cc3c(CN(C)C)c(O)ccc3nc2-1` [Topotecan HCl] has a relative cell viability of 0.524 ± 0.17. In the case of `O=C(NC1CC1)c1cc(-c2cccs2)on1` [Isoxazole 9 (ISX-9)], the relative cell viability is reported as 1.05 ± 0.022. `Oc1cc(O)cc(/C=C/c2ccc(O)c(O)c2)c1` [Piceatannol] was tested, and the relative cell viability was 1.06 ± 0.014. Work on `Nc1nc(=O)[nH]cc1F` [Flucytosine] yielded a relative cell viability of 1.01 ± 0.063. Compound `Cc1cccc(-c2[nH]ncc2-c2ccc3ncccc3n2)n1` has a relative cell viability of 1.15 ± 0.029. `O=C(NCCCNc1nc(Nc2cccc(NC(=O)N3CCCC3)c2)ncc1I)c1cccs1` showed a relative cell viability of 0.943 ± 0.017. `CN1CC[C@@H](c2c(O)cc(O)c3c(=O)cc(-c4ccccc4Cl)oc23)[C@@H]1CO` gave a relative cell viability of 0.501 ± 0.008. Compound `CN(Cc1ccc(C(C)(C)C)cc1)Cc1cccc2ccccc12` [Butenafine HCl] has a relative cell viability of 1.21 ± 0.024. For `S=c1[nH]cnc2nc[nH]c12` [Mercaptopurine (6-MP)], the relative cell viability was 1.05 ± 0.025. Work on `NS(=O)(=O)c1ccc(NC(=O)Nc2ccc(F)cc2)cc1` yielded a relative cell viability of 1.09 ± 0.013. For `N#CC(=Cc1ccc(-c2cc(Cl)ccc2Cl)o1)C(=O)Nc1cccc2ncccc12`, the relative cell viability was 1.05 ± 0.003. In the case of `Cc1cc(F)c(Nc2ncnc3cc(OCc4ccccc4)ccc23)cc1O`, the relative cell viability is reported as 1.13 ± 0.024. `O=c1[nH]c(=O)n([C@H]2C[C@H](O)[C@@H](CO)O2)cc1C(F)(F)F` [Trifluridine] was tested, and the relative cell viability was 1.04 ± 0.023. Work on `Cn1cncc1[C@@](N)(c1ccc(Cl)cc1)c1ccc2c(c1)c(-c1cccc(Cl)c1)cc(=O)n2C` [Tipifarnib] yielded a relative cell viability of 0.9723 ± 0.0062. Compound `Cc1cc(C#N)cc(C)c1Oc1nc(Nc2ccc(C#N)cc2)nc(N)c1Br` [Etravirine (TMC125)] has a relative cell viability of 1.13 ± 0.021. In the case of `Cc1nc2c(O)cccc2c(=O)[nH]1`, the relative cell viability is reported as 1.16 ± 0.089. With `O=C(NNc1ccccc1)c1ccncc1` the relative cell viability was 1.06 ± 0.051. `CC(C)n1cnc2c(NCCc3ccc(O)cc3)nc(-c3csc4ccccc34)nc21` [StemRegenin 1 (SR1)] gave a relative cell viability of 1.15 ± 0.051. `NC1=NCC2c3ccccc3Cc3ccccc3N12` (centres undefined) [Epinastine HCl] gave a relative cell viability of 1.05 ± 0.014. `NC(=O)N1c2ccccc2CC(=O)c2ccccc21` [Oxcarbazepine] showed a relative cell viability of 0.947 ± 0.022. Compound `Oc1nc(-c2ccc(C(F)(F)F)cc2)nc2c1CSCC2` has a relative cell viability of 1.21 ± 0.024. With `Cc1nc2ccc(NC(=O)Nc3ccnc4cccnc34)cc2o1` the relative cell viability was 1.19 ± 0.044. `Cc1ccc(Cl)cc1N(CC(=O)Nc1c(F)cccc1F)S(C)(=O)=O` gave a relative cell viability of 1.166 ± 0.01. Compound `O=C1N=C(O)NC1(c1ccccc1)c1ccccc1` [Phenytoin sodium] has a relative cell viability of 1.033 ± 0.0082. Work on `COc1ccc(OC)c(C2C(C#N)=C(N)Oc3n[nH]c(-c4ccc5ccccc5c4)c32)c1` (centres undefined) yielded a relative cell viability of 1.04 ± 0.023. `CCNc1nc(Nc2cc(F)c(C(=O)N3CCOCC3)cc2OC)ncc1C(F)(F)F` was tested, and the relative cell viability was 1.23 ± 0.012. For `COc1cc(NS(=O)(=O)c2ccc(N)cc2)nc(OC)n1` [Sulphadimethoxine], the relative cell viability was 1.07 ± 0.042. In the case of `CC1(C)O[C@@H]2[C@@H](CO[C@@]3(COS(N)(=O)=O)OC(C)(C)O[C@@H]23)O1` [Topiramate], the relative cell viability is reported as 1.29 ± 0.052. With `NS(=O)(=O)Cc1noc2ccccc12` [Zonisamide] the relative cell viability was 1.28 ± 0.015. Work on `C=CCc1ccc(O)c(-c2cc(CC=C)ccc2O)c1` [Magnolol] yielded a relative cell viability of 1.13 ± 0.043. With `Cc1cn([C@H]2C[C@H](N=[N+]=[N-])[C@@H](CO)O2)c(=O)[nH]c1=O` [Zidovudine] the relative cell viability was 1.02 ± 0.064. `COc1ccc([C@@H]2Sc3ccccc3N(CCN(C)C)C(=O)[C@@H]2OC(C)=O)cc1` [Diltiazem HCl] was tested, and the relative cell viability was 0.817 ± 0.068. In the case of `CC(=O)c1cc([N+](=O)[O-])c(Sc2ccc(F)cc2F)s1`, the relative cell viability is reported as 0.877 ± 0.044. `Cc1ccc2nc(NCCN)c3ncc(C)n3c2c1` showed a relative cell viability of 0.98 ± 0.045. `Cc1c(NC(=O)OC[C@@H]2COCCN2)cn2ncnc(Nc3ccc4c(cnn4Cc4cccc(F)c4)c3)c12` was tested, and the relative cell viability was 1.23 ± 0.12. Compound `COc1ccc(C[C@H](NC(=O)[C@H](C)NC(=O)CN2CCOCC2)C(=O)N[C@@H](Cc2ccccc2)C(=O)[C@@]2(C)CO2)cc1` has a relative cell viability of 0.0804 ± 0.0014. Compound `CC(C[N+](C)(C)C)OC(N)=O` (centres undefined) [Bethanechol chloride] has a relative cell viability of 0.956 ± 0.08. `COc1ccc(CCc2nc3cc(-c4c(C)noc4C)ccc3n2C[C@H](C)N2CCOCC2)cc1Cl` showed a relative cell viability of 1.03 ± 0.041. With `O=C(O)c1cc2cccc([N+](=O)[O-])c2[nH]1` the relative cell viability was 0.971 ± 0.044. In the case of `CCNC(=O)c1noc(-c2cc(C(C)C)c(O)cc2O)c1-c1ccc(CN2CCOCC2)cc1`, the relative cell viability is reported as 0.588 ± 0.017. `CC(=O)C1=C(O)C=C2Oc3c(C(C)=O)c(O)c(C)c(O)c3C2(C)C1=O` (single isomer, unassigned; (+)) [(+)-Usniacin] gave a relative cell viability of 1.15 ± 0.034. Work on `CNCc1ccc(-c2[nH]c3cc(F)cc4c3c2CCNC4=O)cc1` yielded a relative cell viability of 1.26 ± 0.031. `CCCNC(C)C(=O)Nc1c(C)csc1C(=O)OC` (centres undefined) [Articaine HCl] was tested, and the relative cell viability was 1.16 ± 0.024. For `Cc1cnc(-c2cnc(NCCNc3ccc(C#N)cn3)nc2-c2ccc(Cl)cc2Cl)[nH]1`, the relative cell viability was 1.24 and 1.36. Compound `CC1(C)[C@@H](O)CC[C@]2(C)[C@H]3C(=O)C=C4[C@@H]5C[C@@](C)(C(=O)O)CC[C@]5(C)CC[C@@]4(C)[C@]3(C)CC[C@@H]12` [Enoxolone] has a relative cell viability of 1.03 ± 0.032. Work on `CC1(C)CC(=O)c2c(C(F)(F)F)nn(-c3ccc(C(N)=O)c(N[C@H]4CC[C@H](OC(=O)CN)CC4)c3)c2C1` yielded a relative cell viability of 0.5505 ± 0.0039. Work on `C[C@H]1COC2(CCN(c3nc(=O)c4cc(C(F)(F)F)cc([N+](=O)[O-])c4s3)CC2)O1` (racemic) [BTZ043 Racemate] yielded a relative cell viability of 1.08 ± 0.042. In the case of `O=C(O)c1ccc(-n2nc(-c3ccccc3O)nc2-c2ccccc2O)cc1` [Deferasirox], the relative cell viability is reported as 1.095 ± 0.0019. For `COc1c(C)c2c(c(O)c1C/C=C(\C)CCC(=O)OCCN1CCOCC1)C(=O)OC2` [Mycophenolate Mofetil], the relative cell viability was 0.857 ± 0.028. In the case of `CN1C(C(=O)Nc2ccccn2)=C(O)c2ccccc2S1(=O)=O` [Piroxicam], the relative cell viability is reported as 1.13 ± 0.032. For `NCCS` [Cysteamine HCl], the relative cell viability was 1.07 ± 0.033. `COCCOC(=O)C1=C(C)NC(C)=C(C(=O)OC(C)C)C1c1cccc([N+](=O)[O-])c1` (centres undefined) [Nimodipine] showed a relative cell viability of 1.102 ± 0.0064. Work on `O=C(NCc1cccc(O)c1)Nc1nc(-c2ccncc2)cs1` yielded a relative cell viability of 1.115 ± 0.011. `COc1cc(C(=O)NC2CCN(C)CC2)ccc1Nc1ncc2c(n1)N(C1CCCC1)CC(F)(F)C(=O)N2C` showed a relative cell viability of 0.974 ± 0.05. With `COC(=O)CCc1ccc(OCC(O)CNC(C)C)cc1` (centres undefined) [Esmolol HCl] the relative cell viability was 0.998 ± 0.042. `C[C@H](NC(=O)CCc1nc2ccccc2c(=O)[nH]1)c1ccccc1` showed a relative cell viability of 0.9552 ± 0.0032. `NCC(=O)CCC(=O)O` [5-Aminolevulinic acid HCl] was tested, and the relative cell viability was 1.01 ± 0.051. For `CN1CCC(CNc2ccc3ncc(-c4cccc(OC(F)(F)F)c4)n3n2)CC1` [SGI-1776 free base], the relative cell viability was 1.046 ± 0.0074. `Cc1ccc(Sc2ccccc2N2CCNCC2)c(C)c1` was tested, and the relative cell viability was 1.07 ± 0.011. For `Cc1ccc(C)c(OCCCC(C)(C)C(=O)O)c1` [Gemfibrozil], the relative cell viability was 1.12 ± 0.066. Work on `O=C(O)C[C@H](O)C[C@H](O)/C=C/c1c(C2CC2)nc2ccccc2c1-c1ccc(F)cc1` [Pitavastatin Calcium] yielded a relative cell viability of 0.761 ± 0.015. `O=C(CCCN1CCC(O)(c2ccc(Cl)cc2)CC1)c1ccc(F)cc1` [Haloperidol] gave a relative cell viability of 0.897 ± 0.2. Work on `CN1CCN(Cc2ccc(NC(=O)Nc3ccc(Oc4cc(NC(=O)C5CC5)ncn4)cc3)cc2C(F)(F)F)CC1` yielded a relative cell viability of 0.583 ± 0.0068. For `COc1cc2c(cc1OC)[C@@H]1Cc3ccc(OC)c(OC)c3CN1CC2` [Rotundine], the relative cell viability was 1.14 ± 0.088. `Cc1c(OCC(F)(F)F)ccnc1C[S+]([O-])c1nc2ccccc2[nH]1` (centres undefined) [Lansoprazole] gave a relative cell viability of 1.24 ± 0.048. Compound `O=C1CCc2c(ccc3ccccc23)O1` [Splitomicin] has a relative cell viability of 1.13 ± 0.047. Compound `CC[C@@H]1C(=O)N(C)c2cnc(Nc3ccc(C(=O)NC4CCN(C)CC4)cc3OC)nc2N1C1CCCC1` has a relative cell viability of 0.792 ± 0.032. With `O=S(=O)(N=Cc1c(O)ccc2ccccc12)c1cccs1` the relative cell viability was 1.2 ± 0.02.
